In PubChem BioAssay AID1347073 (National Center for Advancing Translational Sciences (NCATS), 2019):
Among all 45,000 compounds or so, about 200 (0.44%) were called active. Roughly 7% stayed inconclusive and do not appear here. The call rests on the fitted dose curve; in most records, active means well fitted activation curve with a large enough effect; inconclusive means small, poorly fitted or top-dose-only effect; inactive means no such curve, though single readings can be large or run the other way. Some of the results follow.

Test: qHTS of TDP-43 Inhibitors: NCGC Sytravon Library Screen; further: 0% is about no effect; nearly all actives have a fitted effect of over 55% in size
Details: yeast TDP-43 toxicity rescue, BacTiter-Glo growth, 24 h; series mostly up to 46.1 µM; growth rescue (activation): at the top concentration
Outline: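 TDP-43-expressing yeast, pregrown in raffinose, seeded at OD600 0.02 in galactose medium with compound for 24 hr at 30 deg C. Growth read by BacTiter-Glo luminescence, so rescue of toxicity appears as activation.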

Row | Compound | growth rescue (activation)
1 | CSc1ccc(CN2CCN(Cc3ccccc3)C(CCO)C2)cc1 (centres undefined) | inactive: 12.3%
2 | CCOc1ccc(/C=C(/C#N)c2nnc(N3CCOCC3)n2-c2ccccc2)cc1OC | inactive: -4.02%
3 | CCN1C(=O)C(CC(=O)Nc2ccc(OC)cc2)N(Cc2ccc3c(c2)OCO3)C1=S (centres undefined) | inactive: 25.5%
4 | C=CCNC(=O)NC(=O)CSc1nc2cc([N+](=O)[O-])ccc2n1-c1cccc(C(F)(F)F)c1 | inactive: 4.11%
5 | Cc1c(NS(=O)(=O)c2ccc(Cl)c(C(=O)OC(C)C(=O)N3CCOCC3)c2)c(=O)n(-c2ccccc2)n1C (centres undefined) | inactive: 3.92%
6 | Cc1ccccc1C(=O)NC1CCN(C(=O)Nc2ccc(F)cc2)CC1 | inactive: -6.52%
7 | CCCCCn1nc(C(=O)OCC(=O)c2c(N)n(C)c(=O)n(C)c2=O)c2ccccc2c1=O | inactive: 7.31%
8 | O=C(CSc1nnnn1-c1ccc(O)cc1)NC1CCCCC1 | inactive: 15.8%
9 | O=C(COC(=O)c1cc(Br)ccc1O)c1ccc(F)cc1 | inactive: 14.5%
10 | CC1(C(=O)NS(=O)(=O)Cc2ccccc2C(F)(F)F)CCN1C(=O)c1cccc(F)c1 (centres undefined) | inactive: 4.87%
11 | COCCN(C(=O)c1ccccc1F)c1c(N)n(Cc2ccccc2)c(=O)[nH]c1=O | inactive: 7.52%
12 | Cc1nc(C)c(C(=O)OCC(=O)N(C)c2ccccc2)s1 | inactive: 8.38%
13 | CN(Cc1cc(=O)n2ccsc2n1)Cc1nc2ccccc2c(=O)[nH]1 | inactive: 10.9%
14 | CSc1ccc(/C=C/c2cc(=O)c3ccccc3[nH]2)cc1 | inactive: -12.6%
15 | O=C(c1ccc(OC2CCN(CCc3ccccc3)CC2)cc1)N1CCCC1 | inactive: -1.83%
16 | CN1CCN(CCC(=O)N/N=C/c2cc([N+](=O)[O-])ccc2OC(F)F)CC1 | inactive: -6.74%
17 | CC(=O)N1CCN(C(=O)C(Cc2c[nH]c3ccccc23)NC(=O)c2ccccc2Cl)CC1 (centres undefined) | inactive: -8.8%
18 | CC1=NN(C(=O)COc2ccc(C)c(C)c2)C(O)(c2ccc(Cl)cc2)C1 (centres undefined) | inactive: -18.1%
19 | CCOC(=O)C1=C(C)NC(C)=C(C(=O)OCC)C1C(=O)OCC(=O)NCCc1ccccc1 | inactive: 4.25%
20 | CCOCCCNC(=S)N1CCN(Cc2ccc3c(c2)OCO3)CC1 | inactive: 7.59%
21 | Cn1cccc1/C=N/N1CCN(Cc2ccccc2Cl)CC1 | inactive: -4.36%
22 | COCCCN(C(=S)Nc1cc(C)cc(C)c1)C(C)c1ccncc1 (centres undefined) | inactive: -3.85%
23 | COc1cc(CC(=O)OCC(=O)NC2CCCCCC2)cc(OC)c1OC | inactive: 23.4%
24 | COc1ccc(C(=O)OCC(=O)N2C(C)CCCC2C)cc1S(=O)(=O)N1CCOCC1 (centres undefined) | inactive: -10%
25 | CCCOc1ccc(C(=O)O/N=C(\CC)c2ccc(C)cc2)cc1 | inactive: 16.7%
26 | CCOC(=O)/C(C#N)=C/N1CCOCC1 | inactive: 19.8%

Row | Compound | growth rescue (activation)
27 | CCOc1ccc(S(=O)(=O)N2CCCCC2)cc1NC(=O)c1ccccc1 | inactive: -2.08%
28 | COC(=O)N/N=C(\CCC(=O)O)c1cccs1 | inactive: 7.82%
29 | COC(=O)c1ccc(N2CCOCC2)c(NC(=O)c2cc3ccccc3o2)c1 | inactive: -0.481%
30 | COC(=O)c1sc2nc3c(c(-c4cccs4)c2c1N)CCCC3 | inactive: -0.643%
31 | Cc1cc(C(=O)Nc2ccc(C(=O)O)cc2)c(C)o1 | inactive: -15.6%
32 | CC1CN(C(=O)COC(=O)c2cc(Cl)ccc2[N+](=O)[O-])CC(C)O1 (centres undefined) | inactive: -18.6%
33 | COc1ccccc1OCC(=O)N(Cc1nc(-c2ccccc2)no1)C(C)C | inactive: -34.3%
34 | O=c1cc(CN2CCN(S(=O)(=O)c3ccccc3[N+](=O)[O-])CC2)nc2sccn12 | inactive: 9.22%
35 | COc1ccc(CNC(=O)CN(C(=O)c2csnn2)c2ccc(F)cc2)cc1 | inactive: 1.23%
36 | C[C@H](NC(=O)Cc1cccc2ccccc12)C(=O)N1CCOCC1 | inactive: 1.56%
37 | C=C(C)Cn1c2ccc(NC(=O)CCc3cccnc3)cc2c(=O)n1C | inactive: 1.56%
38 | Cc1ccc(S(=O)(=O)N(C)C)cc1NC(=O)COC(=O)CCC(=O)c1ccc(F)cc1 | inactive: 1.65%
39 | CCc1cc2c(SCC(=O)N(C)C3CCS(=O)(=O)C3)ncnc2s1 (centres undefined) | inactive: -14.4%
40 | COC(=O)C1CN(C(=O)COc2ccc(C)c(C)c2)c2ccccc2O1 (centres undefined) | inactive: 16.5%
41 | Cc1ccc(NC(=O)Cn2nc(C(=O)O)c3ccccc3c2=O)c([N+](=O)[O-])c1 | inactive: 7.89%
42 | Cc1ccc(-n2cnc3ncnc(-c4ccccc4)c32)cc1 | inactive: 2.22%
43 | OC[C@H]1O[C@@H](c2nc(-c3ccc(CN4CCOCC4)cc3)no2)[C@H](O)[C@@H](O)[C@H]1O | inactive: -1.35%
44 | Cc1c(Cl)c([N+](=O)[O-])nn1CC(=O)NCCCN1CCOCC1 | inactive: -6.97%
45 | Cc1ccc(C(=O)N/C(=C/c2ccc(Cl)cc2)C(=O)NCC2CCCO2)cc1 (centres undefined) | inactive: 13.6%
46 | CCCC(=O)N(Cc1cc(=O)[nH]c2ccccc12)c1ccc(OC)cc1 | inactive: 5%
47 | CCCN1Cc2cccc(C(=O)NC(CC(=O)OCC)c3ccc(C)cc3)c2C1=O (centres undefined) | inactive: -2.4%
48 | Cc1cc(C)n(-c2cc(C(=O)O)cc(C(=O)O)c2)n1 | inactive: -9.6%
49 | CN(C(=O)CN1C(=O)C2C3CC(C(Br)C3Br)C2C1=O)C1CCCCC1 (centres undefined) | inactive: 13.3%
50 | COc1ccc(NC(=O)c2ccc(COCC(F)(F)C(F)F)cc2)cc1OC | inactive: 28.8%
51 | CCCc1cc(N2CCC(C(N)=O)CC2)nc(-c2ccccc2)n1 | inactive: 4.98%
52 | O=C(NC(=S)Nc1sc2c(c1C(=O)O)CCCC2)c1ccccc1 | inactive: -12.6%

Row | Compound | growth rescue (activation)
53 | CN(C)Cc1c(O)ccc2occ(C(=O)c3ccc(F)cc3)c12 | inactive: -5.74%
54 | Cc1oc(-c2cc3c(cc2Cl)OCO3)nc1CN1CCCC(C(=O)N2CCOCC2)C1 (centres undefined) | inactive: -8.03%
55 | O=C(CNC(=O)c1ccccc1)Nc1ccsc1C(=O)O | inactive: -2.44%
56 | CC1CCN(C(=O)CCNS(=O)(=O)c2ccc(Cl)cc2)CC1 | inactive: -6.33%
57 | COc1ccc(CCN2C(=O)/C(=C\c3ccco3)SC2=S)cc1OC | inactive: 13%
58 | CC1(C)CC(=O)C2=C(C1)Nc1ccccc1NC2c1ccc(F)cc1 (centres undefined) | inactive: -3.05%
59 | CN(c1ccccc1)S(=O)(=O)c1cccc(NC(=O)CSc2ncc(C(F)(F)F)cc2Cl)c1 | inactive: -6.66%
60 | COc1ccc(C2Nc3ccccc3C(=O)N2NS(C)(=O)=O)cc1OC (centres undefined) | inactive: -2.55%
61 | CCc1nc2c(OCc3ccc(F)cc3)cccn2c1N(C)C(=O)c1ccco1 | inactive: 4.59%
62 | CCOC(=O)c1ccc(NC(=O)Cn2ncc(Cl)c(Cl)c2=O)cc1 | inactive: -15.3%
63 | CN(CC(=O)NCCc1ccc(S(N)(=O)=O)cc1)CC(=O)Nc1ccccc1C(F)(F)F | inactive: 5.4%
64 | O=C1/C(=C\c2cc(Cl)c(O)c(Cl)c2)SC(=S)N1Cc1ccccc1 | inactive: -6.17%
65 | NC(=O)c1cccc(-c2coc3c(C(=O)NC4CCCCC4)cccc23)c1 | inactive: 27.9%
66 | Cc1nc(NCCc2ccc(F)cc2)c(C#N)c(C)c1[N+](=O)[O-] | inactive: 17.5%
67 | CCCCNC(=S)N/N=C/c1cccc(OCC)c1O | inactive: 11.8%
68 | COc1cc(/C=C/C(=O)OCC(=O)NCc2ccco2)cc(OC)c1OC | inactive: -2.01%
69 | COc1ccc(NC(=O)C2CCC(CNc3c(N4CCCCC4)c(=O)c3=O)CC2)cc1OC (centres undefined) | inactive: 3.78%
70 | Cc1ccccc1OCc1nnc(SCC(=O)NC2CCCCC2)o1 | inactive: 11.5%
71 | Cc1ccc2cc(CCl)c(Cl)nc2c1 | inactive: -12.5%
72 | CCOC(=O)C1CCCN(C(=O)/C(=C/c2ccco2)NC(=O)c2ccccc2)C1 (centres undefined) | inactive: 6.97%
73 | N#Cc1ccc(S(=O)(=O)N2CCC(N3CCCCC3)CC2)cc1 | inactive: 1.57%
74 | Cc1cc(C)c(C#N)c(SCC(=O)Nc2c(C)n(C)n(-c3ccccc3)c2=O)n1 | inactive: -4.13%
75 | COc1cc(CO)ccc1OCC(=O)Nc1ccc(Br)cc1 | inactive: -0.29%
76 | COCCCNC(=O)C(=O)C1C(=O)Nc2ccccc21 (centres undefined) | inactive: 11.9%
77 | CC(=O)Oc1ccc(/C=C2\C=C(c3ccc(C)cc3)OC2=O)cc1 | inactive: -13.2%
78 | CC1(C)CC(=NOC(=O)c2ccccc2)CC(C)(C)N1O | inactive: 10.4%

Row | Compound | growth rescue (activation)
79 | Cc1[nH]c2ccc(-c3n[nH]c(=S)n3-c3ccc(Br)cc3)cc2c1C | inactive: 1.05%
80 | Cc1c(C2CC(=O)N(c3ccccc3)C2=O)[nH]n(-c2ccccc2)c1=O (centres undefined) | inactive: -4.04%
81 | Cc1cc(NS(=O)(=O)c2ccc(NC(=O)CNS(=O)(=O)c3ccccc3)cc2)nc(C)n1 | inactive: -15.2%
82 | Cc1ccc(/C=N/NC(=O)c2cc(C)oc2C)o1 | inactive: 5.34%
83 | O=C(NC(=S)Nc1cccc2cnccc12)c1ccccc1 | inactive: -0.378%
84 | COC(=O)c1ccc(C2C(C(=O)c3cc4ccccc4o3)=C(O)C(=O)N2c2cc(C)on2)cc1 (centres undefined) | inactive: -7.66%
85 | CC(=O)NS(=O)(=O)c1ccc(NC(=O)c2ccc3c(c2)NC(=O)CS3)cc1 | inactive: 0.217%
86 | Cc1c(C(=O)N2CCOCC2)c(S(=O)(=O)Nc2cccc(Br)c2)c(C)n1C | inactive: -9.89%
87 | CC(NC(=O)c1ccc(C(F)(F)F)cc1)C(c1ccccc1)N1CCOCC1 (centres undefined) | inactive: 14%
88 | CCOC(=O)c1c(NC(C)=O)c2c3c(sc2n1Cc1nc(-c2ccccc2Cl)oc1C)CCCC3 | inactive: 2.62%
89 | Cc1ccc(/C=N/NC(=O)c2cc(C)oc2C)cc1 | inactive: -9.06%
90 | Cc1cn(C(=O)CN2C(=O)c3ccccc3C2=O)c(C)n1 | inactive: -5.32%
91 | CN(C)CCCNc1cc(C(C)(C)C)nc2c(-c3ccccc3)cnn12 | inactive: 5.23%
92 | COc1ccc(C(=O)/C=C/c2cn(CC(O)CN3CCOCC3)c3ccccc23)cc1 (centres undefined) | inactive: 12.4%
93 | CCCCCCCNC(=O)c1cc(-c2ccncc2)nc2ccccc12 | inactive: 17.5%
94 | Cn1c(C(=O)N[C@@H](Cc2ccccc2)C(=O)NCCC(=O)O)cc2cc(Cl)ccc21 | inactive: -20.3%
95 | CN(C)S(=O)(=O)c1ccc(Cl)c(NC(=O)CN2CCCC2)c1 | inactive: 2.17%
96 | Cc1ccc(C)c(OCc2nc3ccccc3[nH]2)c1 | inactive: 13.8%
97 | CC(C)N1C(=O)S/C(=C/c2ccccc2OCc2ccc(C(=O)O)cc2)C1=O | inactive: -11%
98 | COc1ccc(NC(=S)N(Cc2ccc(C(=O)O)cc2)Cc2ccc(OC)c(OC)c2)cc1 | inactive: 5.19%
99 | CCN1/C(=C/C=C/c2oc3ccc4ccccc4c3[n+]2CC)Oc2ccc3ccccc3c21 | inactive: -71.3%
100 | O=C(CCCc1c[nH]c2ccccc12)Nc1ccc2ccccc2c1 | inactive: -14.2%
101 | Cc1ccc(CNC(=O)COC(=O)C2CCN(S(=O)(=O)c3cccs3)CC2)cc1 | inactive: 4.63%
102 | C#CCOc1ccccc1/C=C1/C(=O)ON=C1C | inactive: -8.29%
103 | CCCn1ncc(CN2CCC(CO)(CC3CCCCO3)CC2)c1C (centres undefined) | inactive: -6.21%
104 | CCN(CC)Cc1c(NC(=O)c2ccccc2)sc(C)c1C | inactive: 13.8%
